# According to PMC4336329 (PLoS ONE, 2015):
# In all, about 310,000 compounds went through this assay and about 2,200 (0.71%) showed an effect of 50% or more. The effect is printed as a negative number. The list shows a part of the results.
# Target: human ether-à-go-go-related gene (hERG) potassium channel (human, UniProt Q12809)
# Assay: primary screen, population patch clamp on CHO cells stably expressing hERG
# human ether-à-go-go-related gene (hERG) potassium channel, sequence (Q12809 whole entry, looked up): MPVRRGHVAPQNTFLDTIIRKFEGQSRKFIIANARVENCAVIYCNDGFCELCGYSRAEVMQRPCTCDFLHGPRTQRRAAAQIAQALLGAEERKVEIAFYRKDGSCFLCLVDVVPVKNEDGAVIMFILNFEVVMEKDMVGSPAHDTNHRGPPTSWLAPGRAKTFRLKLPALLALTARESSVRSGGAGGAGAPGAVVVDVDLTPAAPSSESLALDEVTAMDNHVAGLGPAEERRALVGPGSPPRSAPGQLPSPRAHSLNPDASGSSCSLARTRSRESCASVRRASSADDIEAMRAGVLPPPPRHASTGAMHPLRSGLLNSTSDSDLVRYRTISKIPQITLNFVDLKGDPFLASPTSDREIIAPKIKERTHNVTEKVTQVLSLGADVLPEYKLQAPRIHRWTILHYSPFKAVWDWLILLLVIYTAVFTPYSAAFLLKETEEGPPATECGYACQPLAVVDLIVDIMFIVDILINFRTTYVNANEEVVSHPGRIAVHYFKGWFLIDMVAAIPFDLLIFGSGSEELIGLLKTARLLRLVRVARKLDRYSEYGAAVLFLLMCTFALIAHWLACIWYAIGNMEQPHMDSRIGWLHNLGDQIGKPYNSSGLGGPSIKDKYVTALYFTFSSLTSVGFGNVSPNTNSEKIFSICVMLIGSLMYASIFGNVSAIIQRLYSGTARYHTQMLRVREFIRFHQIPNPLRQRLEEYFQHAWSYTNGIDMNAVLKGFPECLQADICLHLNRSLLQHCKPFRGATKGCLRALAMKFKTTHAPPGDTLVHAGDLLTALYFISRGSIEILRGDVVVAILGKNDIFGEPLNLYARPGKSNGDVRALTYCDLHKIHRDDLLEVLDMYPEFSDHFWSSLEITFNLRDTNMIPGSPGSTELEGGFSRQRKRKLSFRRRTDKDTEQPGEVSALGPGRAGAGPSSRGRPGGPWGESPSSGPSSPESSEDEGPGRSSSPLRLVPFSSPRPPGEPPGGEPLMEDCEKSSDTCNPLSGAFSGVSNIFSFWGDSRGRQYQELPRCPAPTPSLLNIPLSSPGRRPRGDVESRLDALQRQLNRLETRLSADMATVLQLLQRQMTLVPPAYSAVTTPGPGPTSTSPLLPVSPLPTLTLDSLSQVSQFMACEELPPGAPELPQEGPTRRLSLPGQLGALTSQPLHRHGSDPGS
row,Structure (SMILES),"hERG current change (%, negative = inhibition) at 1uM [%]"
1,O=C(NS(=O)(=O)Oc1ccccc1F)OC[C@@H]1CCCN2CCCCC12 (some centres unmarked),19.2
2,O=S(=O)(NCc1ccccc1)c1ccc(S(=O)(=O)N(Cc2cccs2)CC2CCCO2)cc1 (centres unmarked),10.8
3,COc1cccc2c1Oc1ncccc1N(C(=O)CCC(=O)NCc1ccc(F)cc1)C2,15.5
4,Cc1ccc(N(CC(=O)NCC2CCCO2)C(=O)CCC(=O)Nc2ccccn2)cc1C (centres unmarked),4.97
5,CC(=O)c1c(C)[nH]c(C2=NNC(=NC(C)(C)C)SC2)c1C,21.5
6,Cc1[nH]c2ccccc2c1/C=C(\C#N)C(=O)NC(C)c1ccccc1 (centres unmarked),17.3
7,O=C(CSc1nnc(-c2cccc(Br)c2)o1)N1CCOCC1,16.7
8,COc1cc(C=C2C(=O)c3ccccc3C2=O)cc(OC)c1,14.7
9,COc1cc(NC(=O)c2sc3ncn(CC(=O)N4CCCC(C)C4)c(=O)c3c2C)cc(OC)c1OC (centres unmarked),23
10,Cc1oc(-c2ccccc2F)nc1CS(=O)CC(=O)NCc1ccc2c(c1)OCO2 (centres unmarked),1.79
11,Cc1ccnc(SCc2cc(=O)c(OC(=O)c3ccc(Cl)c([N+](=O)[O-])c3)co2)n1,2.7
12,Cc1onc(-c2ccccc2Cl)c1C(=O)Oc1cc(N)n(S(=O)(=O)c2ccc(F)cc2)n1,1.76
13,NS(=O)(=O)c1cc2c(cc1Cl)NC(CSCc1ccccc1)=NS2(=O)=O,16.7
14,COc1ccc(N2CCN(C(c3ccccc3)c3sc4nc(C)nn4c3O)CC2)cc1 (centres unmarked),-3.28
15,O=C(NNC(=O)c1ccccc1Cl)c1ccc2c(=O)n3c(nc2c1)CCC3,7.44
16,COc1ccc(NC(=O)C2CCC(CNc3c(N4CCCCC4)c(=O)c3=O)CC2)cc1OC (centres unmarked),1.14
17,C/C=C(\C)C(=O)Nc1cccc(C2=NOC3(C2)C[C@@H](C(N)=O)N(C(=O)/C(C)=C/C)C3)c1 (some centres unmarked),2.6
18,CCOC(=O)N1CCN(C(=O)c2cc(S(=O)(=O)N3CCCC3)cn2C)CC1,-0.48
19,COc1ccc(NC(=O)c2ccc(NC(=O)c3ccco3)cc2)c(OC)c1,14.5
20,O=c1ccc2c(-c3ccccc3)c3ccc(O)cc3oc-2c1,12.2
21,CCOc1ccc(S(=O)(=O)Nc2nc3ccccc3nc2Cl)cc1,-1.69
22,O=C1NC(=O)C(CCc2ccncc2)(c2ccccc2)C(=O)N1,12.5
23,O=C(COC(=O)CSc1cc(Cl)ccc1Cl)NCc1ccc2c(c1)OCO2,14.9
24,Cc1cc(S(=O)(=O)N2CCN(c3ncccn3)CC2)ccc1-n1cnnn1,11.1
25,Cn1nc(C(=O)NNC(=O)CCc2ccccc2Cl)c2ccccc2c1=O,-3.08
26,O=C(CSc1nc2ccccc2c(=O)[nH]1)N1CCN(S(=O)(=O)c2ccccc2)CC1,4.66
27,CS(=O)(=O)c1nc(-c2ccccc2)c(-c2ccccc2)[nH]1,14.6

row,Structure (SMILES),"hERG current change (%, negative = inhibition) at 1uM [%]"
1,CCOC(=O)C1/C(=N\O)CC(C)(O)C(C(=O)OCC)C1c1ccc(OC)c(OC)c1 (centres unmarked),3.01
2,CCCS(=O)(=O)n1nc(-c2ccc(Br)cc2)cc1N,17.4
3,Cc1ccc(SCC(=O)OCC(=O)N(C)C2CCS(=O)(=O)C2)cc1C (centres unmarked),3.61
4,CCOC(=O)N1CCN(C(=O)CSc2ccc3nnc(CCNC(=O)c4ccc(OC)cc4)n3n2)CC1,0.711
5,Cc1ccc(C)c(OCCC(=O)OCC(=O)Nc2cc(S(=O)(=O)N3CCOCC3)ccc2C)c1,11.9
6,Cc1ccc(C(C)C)c(OCC(=O)N/N=C/C2CCCCC2)c1,0.408
7,CCOC(=O)C1C(=O)CC(C)(O)C(C(=O)OCC)C1c1ccc(F)cc1 (centres unmarked),14
8,COc1cc(C(Nc2ccc(S(=O)(=O)NCC3CCCO3)cc2)C(=O)NC(C)(C)C)cc(OC)c1OC (centres unmarked),18.1
9,COc1ccc(C(c2c(C)[nH]n(-c3ccccc3)c2=O)c2c(C)[nH]n(-c3ccccc3)c2=O)cc1OC,0.003
10,COc1cccc(CNc2ccc3[nH]c(=O)[nH]c3c2)c1OCc1ccccc1F,16.3
11,O=C(c1cccc(S(=O)(=O)N2CCc3ccccc32)c1)N1CCc2ccccc2C1,-4.56
12,CCc1ccc(N2CC(C(=O)Nc3cc(C)on3)CC2=O)cc1 (centres unmarked),-1.36
13,COC(=O)c1cc(-c2ccc(OC)cc2)n[nH]1,5.3
14,COc1ccc(-c2csc3nc(-c4ccccc4F)oc(=O)c23)cc1OC,-3.84
15,C/C(=N\Nc1nc(C)cc(C)n1)c1ccc(N2CCOCC2)cc1,3.89
16,CCn1c2ccccc2c2cc(NC(=O)CSc3nnc(-c4ccccc4OC)n3N)ccc21,5.65
17,Cc1cc(=O)n(Cc2ccc(OC(C)C)cc2)c(=S)[nH]1,6.81
18,O=C(CN1CCc2cc3c(cc2C1)OCCCO3)Nc1cccc([N+](=O)[O-])c1,3.58
19,FC(F)(F)C(F)(F)C(F)(F)c1nnc2ccc(N3CCOCC3)nn12,6.45
20,O=C(Nc1nc2c(s1)CN(Cc1ccccc1)CC2)C1CCCC1,3.35
21,C=C(C)COc1ccc(-c2ncncc2-c2ccccc2OC)c(O)c1,10.2
22,Cc1csc(CNc2ncnc3ccc(-c4ccc5c(c4)OCCO5)cc23)c1,13.1
23,O=c1[nH]c(=O)n(Cc2ccc(F)cc2)c(O)c1/C=N/Nc1ccccc1,11.2
24,CCOC(=O)/C(C#N)=C/c1ccc(N2CCCCC2)cc1,2.88
25,CCNc1ccc(P(=S)(N(C)C)N(C)C)cc1,9.35
26,CCOC(=O)C1CCCN(C(=O)c2cc(=O)c3ccccc3o2)C1 (centres unmarked),11.1
